According to article PMC4336329 (PLoS ONE, 2015):
Among all 310,000 compounds or so, about 2,200 (0.71%) showed an effect of 50% or more. The effect is printed as a negative number. The list shows a part of the results.

Target: human ether-à-go-go-related gene (hERG) potassium channel (human, UniProt Q12809)
Assay: primary screen, population patch clamp on CHO cells stably expressing hERG

Chain of human ether-à-go-go-related gene (hERG) potassium channel (Q12809 whole entry, looked up): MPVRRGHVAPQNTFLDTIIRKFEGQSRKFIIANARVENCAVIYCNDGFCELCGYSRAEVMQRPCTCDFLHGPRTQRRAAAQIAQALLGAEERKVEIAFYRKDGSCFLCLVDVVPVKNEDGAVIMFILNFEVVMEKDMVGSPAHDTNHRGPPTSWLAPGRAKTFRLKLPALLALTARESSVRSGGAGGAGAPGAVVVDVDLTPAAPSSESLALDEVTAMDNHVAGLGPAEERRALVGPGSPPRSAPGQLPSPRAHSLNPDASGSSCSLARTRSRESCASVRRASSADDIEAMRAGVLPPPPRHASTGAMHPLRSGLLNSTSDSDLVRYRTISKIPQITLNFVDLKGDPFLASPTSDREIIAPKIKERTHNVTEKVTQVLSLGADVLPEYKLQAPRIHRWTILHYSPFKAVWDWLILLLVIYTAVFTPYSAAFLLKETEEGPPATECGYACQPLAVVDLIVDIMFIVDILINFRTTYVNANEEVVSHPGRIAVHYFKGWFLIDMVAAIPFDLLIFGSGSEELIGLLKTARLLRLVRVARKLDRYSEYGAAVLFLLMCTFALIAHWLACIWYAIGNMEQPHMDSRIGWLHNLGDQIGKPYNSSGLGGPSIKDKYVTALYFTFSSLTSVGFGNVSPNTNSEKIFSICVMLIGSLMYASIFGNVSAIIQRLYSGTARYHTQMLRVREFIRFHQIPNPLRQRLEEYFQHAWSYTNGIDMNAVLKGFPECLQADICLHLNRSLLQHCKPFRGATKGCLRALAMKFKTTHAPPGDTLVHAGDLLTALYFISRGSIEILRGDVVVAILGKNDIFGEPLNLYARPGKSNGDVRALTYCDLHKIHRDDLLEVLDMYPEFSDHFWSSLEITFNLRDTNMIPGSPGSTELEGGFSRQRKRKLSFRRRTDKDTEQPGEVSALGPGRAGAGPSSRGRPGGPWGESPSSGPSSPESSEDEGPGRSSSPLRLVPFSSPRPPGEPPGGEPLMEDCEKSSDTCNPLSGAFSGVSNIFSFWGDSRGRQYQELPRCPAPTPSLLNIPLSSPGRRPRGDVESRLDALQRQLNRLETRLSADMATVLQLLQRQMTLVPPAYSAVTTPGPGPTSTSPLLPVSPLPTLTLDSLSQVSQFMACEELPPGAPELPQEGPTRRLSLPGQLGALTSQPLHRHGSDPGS

| SMILES | hERG current change (%, negative = inhibition) at 1uM [%] |
| --- | --- |
| O=C(CN1CCN(c2ccccc2O)CC1)Nc1cc([N+](=O)[O-])ccc1Cl | 4.97 |
| Cc1ccc(C(=O)N/C(=C\c2cccc([N+](=O)[O-])c2)C(=O)Nc2cccc(C(=O)O)c2)cc1 | 10.5 |
| Cc1ccc(S(=O)(=O)Nc2cccc(-n3cnnn3)c2)cc1 | 5.4 |
| Cc1oc(-c2cccc(Cl)c2)nc1CN1CCC(C(=O)NCc2cccnc2)CC1 | -13 |
| O=S(=O)(c1ccccc1)N1CCC2(CC1)OCCO2 | 16.4 |
| COC(=O)C1=C(N)Oc2cc(C)n(C)c(=O)c2C1c1ccc(Cl)cc1 (stereo not shown) | 4.99 |
| COC(=O)C1C(O)C(C)C(O)C(C)(O)/C=C\C=C(/C)C(=O)Nc2c(C)c(OC(C)=O)c3c(c2O)C(=O)C(C)=C2OCOC(=C23)/C(C)=C/C(C)(O)C(O)C(C)C1O (stereo not shown) | 7.93 |
| O=C(COC(=O)/C=C/c1cccc(C(F)(F)F)c1)NCc1ccco1 | 19.7 |
| CC1(C)Cc2c(cnn2-c2ccc(F)cc2)C(NC(=O)C2CCC2)C1 (stereo not shown) | -56.8 |
| O=C(Nc1ccc(Oc2cccnc2)cc1)C1CCN(Cc2cccc(Cl)c2)CC1 | 6.55 |
| COCC(C)NC(=O)c1ccccc1[N+](=O)[O-] (stereo not shown) | 16.5 |
| CCOC(=O)c1ccc(S(=O)(=O)NNS(=O)(=O)c2ccc(C)cc2)cc1 | 15.1 |
| CC(=O)Nc1ccc(-c2cc(NC(C)=O)n(-c3ccccc3)n2)cc1 | 12.1 |
| COc1ccc(NC(=O)c2ccccc2O)c(OC)c1 | -1.74 |
| CCN(CC)C(=O)Oc1ccc2c(=O)c(-c3ccc(OC)cc3)coc2c1 | 14.4 |
| CC(=O)Nc1ccc(OC(=O)N(C)c2ccccc2)cc1 | 7.93 |
| COCCN(CCOC)Cc1c(O)ccc2c1O/C(=C\c1ccco1)C2=O | 19.1 |
| CCCNC(=S)Nc1ccc(Nc2ccccc2)cc1 | -1.84 |
| CCOC(=O)N1CCN(c2c(NCCCN(CC)Cc3ccccc3)c(=O)c2=O)CC1 | 11.2 |
| CCc1cc2ccccc2nc1SCC(=O)Nc1cc(OC)c(OC)cc1C(=O)O | 3.77 |
| CCC(OC(=O)c1nsc(Cl)c1Cl)C(=O)NC(C)(C)CC (stereo not shown) | 9.53 |
| Cc1cc(C)c(C)c(S(=O)(=O)Nc2ccc(O)cc2)c1C | 0.777 |

| SMILES | hERG current change (%, negative = inhibition) at 1uM [%] |
| --- | --- |
| Cc1ccc(N=Cc2c(O)n(C)c(=O)n(C)c2=O)cc1 | 13.2 |
| COc1ccc(F)cc1S(=O)(=O)N1CC(C)CC(C)C1 (stereo not shown) | 1.67 |
| Cc1ccc(C)c(N2CCN(C(=O)c3cc(S(=O)(=O)N4CCOCC4)cn3C)CC2)c1 | 4.01 |
| O=C(O)COc1ccc(C(=O)c2ccccc2)cc1 | 15.8 |
| CC(C)c1cccc(C(C)C)c1OCCCCCN1CCOCC1 | -2.25 |
| O=C(CN1CCN(CN2C(=O)NC3(CCCCCC3)C2=O)CC1)Nc1cccc(F)c1 | 11.6 |
| C=CCn1c(=O)c2ccccc2n2c(SCC(C)=O)nnc12 | 7.68 |
| COc1cc(NC(=O)C(=O)NCCN2CCNCC2)c(OC)cc1Cl | 12.1 |
| COc1nnc(-c2ccc(C)c(S(=O)(=O)NCCO)c2)c2ccccc12 | -0.94 |
| CCN(CC)S(=O)(=O)c1cccc(NC(=O)COC(=O)C2COc3ccccc3O2)c1 (stereo not shown) | 6.43 |
| COc1ccc2c(C)c(CCC(=O)N3C[C@H]4C[C@@H](C3)c3cccc(=O)n3C4)c(=O)oc2c1 | -11.8 |
| O=C(NC(=O)N1CCCCCC1)c1ccc(Cl)cc1 | 0.837 |
| CCOc1ccc(C2C(C#N)=C(N)SC(N)=C2C#N)cc1OCC | 13.3 |
| CCn1c(O)c(C2=NCCCC2)c2ccccc21 | -0.203 |
| COc1ccc(OC)c2c1sc(=NC(=O)C1COc3ccccc3O1)n2C (stereo not shown) | 9.4 |
| CCOC(=O)C1=C(N)Oc2cc(O)ccc2C1c1ccc([N+](=O)[O-])cc1 (stereo not shown) | -13.7 |
| CCn1cc(C(=O)Nc2cccc(C(=O)OC)c2)c(=O)c2ccc(C)nc21 | 3.57 |
| COc1ccc(OCC(=O)NNC(=O)c2cccnc2)cc1 | 16.9 |
| COCCN(C(=O)CSc1nnc2cc(C)c3ccccc3n12)c1c(N)n(Cc2ccccc2)c(=O)[nH]c1=O | 13.4 |
| Cc1cc(OC(C)C)nc(-c2ccccc2O)n1 | 6.11 |
| O=C(Nc1ccc(S(=O)(=O)N2CCCCC2)cc1)C1CC(=O)N(c2ccccc2)C1 (stereo not shown) | 12.4 |
